Experimental data reported in patent US7652041B2, “Cinnamide and hydrocinnamide derivatives with kinase inhibitory activity” (Millennium Pharmaceuticals, Inc., priority 2005, dated 2010).

The molecules below were run on A375 cells (assay: Phospho-ERK ELISA assay). Conditions: Homo sapiens, A-375, 3 hours with inhibitor, anti-p44/42MAPK antibody ELISA, normalized for protein content.
Assay type: cell-based
How it was run: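 A375 cells treated with Raf kinase inhibitors for 3 hours at 37° C, then fixed, permeabilised with methanol and immunostained with anti-p44/42 MAPK antibody plus HRP secondary. TMB colour read as optical density at 650 nm, normalised to well protein content by BCA assay.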

Row | Compound | IC50 [µM]
1 | O=C(CCc1ccc(Oc2ccnc(C3=NCCCN3)c2)cc1)Nc1cccc(C(F)(F)F)c1 [Compound A-86, 3-(4-{[2-(1,4,5,6-tetrahydropyrimidin-2-yl)pyridin-4-yl]oxy}phenyl)-N-[3-(trifluoromethyl)phenyl]propanamide] | 10 to 25
2 | O=C(CCc1cccc(Oc2ccnc(C3=NCCN3)c2)c1)Nc1cc(C(F)(F)F)c(Cl)cc1O [Compound A-218, N-[4-chloro-2-hydroxy-5-(trifluoromethyl)phenyl]-3-(3-{[2-(4,5-dihydro-1H-imidazol-2-yl)pyridin-4-yl]oxy}phenyl)propanamide] | 1 to 10
3 | O=C(CCc1cccc(Oc2ccnc(C3=NCCN3)c2)c1)Nc1cc(C(F)(F)F)ccc1F [Compound A-103, 3-(3-{[2-(4,5-dihydro-1H-imidazol-2-yl)pyridin-4-yl]oxy}phenyl)-N-[2-fluoro-5-(trifluoromethyl)phenyl]propanamide] | 1 to 10
4 | O=C(CCc1cccc(Oc2ccnc(C3=NCCN3)c2)c1)Nc1cccc(C(F)(F)F)c1 [Compound A-151, 3-(3-{[2-(4,5-dihydro-1H-imidazol-2-yl)pyridin-4-yl]oxy}phenyl)-N-[3-(trifluoromethyl)phenyl]propanamide] | 1 to 10
5 | CN(C)Cc1cnc(-c2cc(Oc3cccc(CCC(=O)Nc4ccc(Cl)c(C(F)(F)F)c4)c3)ccn2)[nH]1 [Compound A-73, N-[4-chloro-3-(trifluoromethyl)phenyl]-3-{3-[(2-{5-[(dimethylamino)methyl]-1H-imidazol-2-yl}pyridin-4-yl)oxy]phenyl}propanamide] | 1 to 10
6 | Cc1cc(CCC(=O)Nc2ccc(Cl)c(C(F)(F)F)c2)ccc1Oc1ccnc(C2=NCCN2)c1 [Compound A-62, N-[4-chloro-3-(trifluoromethyl)phenyl]-3-(4-{[2-(4,5-dihydro-1H-imidazol-2-yl)pyridin-4-yl]oxy}-3-methylphenyl)propanamide] | 1 to 10
7 | Nc1cc(NC(=O)CCc2cccc(Oc3ccnc(C4=NCCN4)c3)c2)cc(C(F)(F)F)c1 [Compound A-233, N-[3-amino-5-(trifluoromethyl)phenyl]-3-(3-{[2-(4,5-dihydro-1H-imidazol-2-yl)pyridin-4-yl]oxy}phenyl)propanamide] | 1 to 10
8 | N=C(N)c1cc(Oc2ccc(CCC(=O)Nc3ccc(Cl)c(C(F)(F)F)c3)cc2)ccn1 [Compound A-245, 3-[4-({2-[amino(imino)methyl]pyridin-4-yl}oxy)phenyl]-N-[4-chloro-3-(trifluoromethyl)phenyl]propanamide] | 1 to 10
9 | CN(C)CCNCc1cnc(-c2cc(Oc3cccc(CCC(=O)Nc4ccc(Cl)c(C(F)(F)F)c4)c3)ccn2)[nH]1 [Compound A-58, N-[4-chloro-3-(trifluoromethyl)phenyl]-3-[3-({2-[5-({[2-(dimethylamino)ethyl]amino}methyl)-1H-imidazol-2-yl]pyridin-4-yl}oxy)phenyl]propanamide] | 1 to 10
10 | O=C(CCc1cccc(Oc2ccnc(C3=NCCN3)c2)c1)Nc1cc(C(F)(F)F)cc(C(F)(F)F)c1 [Compound A-157, N-[3,5-bis(trifluoromethyl)phenyl]-3-(3-{[2-(4,5-dihydro-1H-imidazol-2-yl)pyridin-4-yl]oxy}phenyl)propanamide] | 1 to 10
11 | O=C(/C=C/c1cccc(Oc2ncnc3[nH]cnc23)c1)Nc1ccc(Cl)c(C(F)(F)F)c1 [Compound B-3, (2E)-N-[4-chloro-3-(trifluoromethyl)phenyl]-3-[3-(9H-purin-6-yloxy)phenyl]acrylamide] | 1 to 10
12 | O=C(CCc1cccc(Nc2ccnc(C3=NCCN3)c2)c1)Nc1ccc(Cl)c(C(F)(F)F)c1 [Compound A-156, N-[4-chloro-3-(trifluoromethyl)phenyl]-3-(3-{[2-(4,5-dihydro-1H-imidazol-2-yl)pyridin-4-yl]amino}phenyl)propanamide] | 1 to 10
13 | O=C(CCc1cccc(Oc2ccnc(C3=NCCN3)c2)c1)Nc1cccc(OC(F)(F)F)c1 [Compound A-130, 3-(3-{[2-(4,5-dihydro-1H-imidazol-2-yl)pyridin-4-yl]oxy}phenyl)-N-[3-(trifluoromethoxy)phenyl]propanamide] | 1 to 10
14 | N#Cc1cc(NC(=O)CCc2cccc(Oc3ccnc(C4=NCCN4)c3)c2)cc(C(F)(F)F)c1 [Compound A-117, N-[3-cyano-5-(trifluoromethyl)phenyl]-3-(3-{[2-(4,5-dihydro-1H-imidazol-2-yl)pyridin-4-yl]oxy}phenyl)propanamide] | 1 to 10
15 | CC(CC(=O)Nc1ccc(Cl)c(C(F)(F)F)c1)c1cccc(Oc2ccnc(C3=NCCN3)c2)c1 (centres unmarked) [Compound A-132, N-[4-chloro-3-(trifluoromethyl)phenyl]-3-(3-{[2-(4,5-dihydro-1H-imidazol-2-yl)pyridin-4-yl]oxy}phenyl)butanamide] | 1 to 10
16 | O=C(CCc1cccc(Oc2ccnc(C3=NCCN3)c2)c1)Nc1ccc(CCCO)c(C(F)(F)F)c1 [Compound A-145, 3-(3-{[2-(4,5-dihydro-1H-imidazol-2-yl)pyridin-4-yl]oxy}phenyl)-N-[4-(3-hydroxypropyl)-3-(trifluoromethyl)phenyl]propanamide] | 1 to 10
17 | CN1CCN(C(=O)c2c[nH]c(-c3cc(Oc4cccc(CCC(=O)Nc5ccc(Cl)c(C(F)(F)F)c5)c4)ccn3)n2)CC1 [Compound A-184, N-[4-chloro-3-(trifluoromethyl)phenyl]-3-{3-[(2-{4-[(4-methylpiperazin-1-yl)carbonyl]-1H-imidazol-2-yl}pyridin-4-yl)oxy]phenyl}propanamide] | ≤ 1
18 | O=C(CCc1cccc(Oc2ccnc(C3=NC(CO)CN3)c2)c1)Nc1ccc(Cl)c(C(F)(F)F)c1 (centres unmarked) [Compound A-178, N-[4-chloro-3-(trifluoromethyl)phenyl]-3-[3-({2-[4-(hydroxymethyl)-4,5-dihydro-1H-imidazol-2-yl]pyridin-4-yl}oxy)phenyl]propanamide] | 1 to 10
19 | CC(C)(C)c1cccc(NC(=O)CCc2cccc(Oc3ccnc(C4=NCCN4)c3)c2)c1 [Compound A-59, N-(3-tert-butylphenyl)-3-(3-{[2-(4,5-dihydro-1H-imidazol-2-yl)pyridin-4-yl]oxy}phenyl)propanamide] | ≤ 1
20 | C/C(=C\c1cccc(Oc2ccnc(C3=NCCN3)c2)c1)C(=O)Nc1ccc(Cl)c(C(F)(F)F)c1 [Compound B-12, (E)-N-(4-Chloro-3-(trifluoromethyl)phenyl)-3-(3-(2-(4,5-dihydro-1H-imidazol-2-yl)pyridine-4-yloxy)phenyl)-2-methylacrylamide] | ≤ 1
21 | Cc1cnc(-c2cc(Oc3cccc(CCC(=O)Nc4ccc(Cl)c(C(F)(F)F)c4)c3)ccn2)[nH]1 [Compound A-158, N-[4-chloro-3-(trifluoromethyl)phenyl]-3-(3-{[2-(5-methyl-1H-imidazol-2-yl)pyridin-4-yl]oxy}phenyl)propanamide] | 10 to 25
22 | CC(C)(C)c1cccc(NC(=O)C(O)Cc2cccc(Oc3ccnc(C4=NCCN4)c3)c2)c1 (centres unmarked) [Compound A-166, N-(3-tert-butylphenyl)-3-(3-{[2-(4,5-dihydro-1H-imidazol-2-yl)pyridin-4-yl]oxy}phenyl)-2-hydroxypropanamide] | 1 to 10
23 | CC(C)(C)c1cccc(NC(=O)CCc2ccc(Oc3ccnc(C4=NCCN4)c3)cc2)c1 [Compound A-115, N-(3-tert-butylphenyl)-3-(4-{[2-(4,5-dihydro-1H-imidazol-2-yl)pyridin-4-yl]oxy}phenyl)propanamide] | ≤ 1
